Experimental data as given in PubChem BioAssay (Tox21).
The shares of active, inactive and inconclusive entries below differ from those in the screen. For some assays here: Potencies beside an inconclusive call are fits to weak or partial responses and may not hold up. Active and inactive are the calls of the source. Unless noted, calls follow the shape of the dose curve; as a rule, active = well fitted curve in the direction sought with a large enough effect in the repeat runs; inconclusive = weak or mixed curves; inactive = no such curve, though single readings can be large; an effect the other way counts as inactive or inconclusive.

Key:
[1] = qHTS assay for identifying genotoxic compounds that show differential cytotoxicity against isogenic chicken DT40 cell lines with known DNA damage response pathways - wild type cell line (AID 743012); details: DT40 wild type chicken cells viability, CellTiter-Glo, 40 h; activity change, negative = cytotoxicity: at 68.4 µM (top of the series) unless noted; also: nearly all actives have a fitted effect of over 60% in size; also: potency is read from the fitted curve at half-maximal effect
Outline: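 Viability by ATP luminescence (CellTiter-Glo, 30 min RT) after 40 h compound treatment at 37 C/5% CO2, using 300 parental DNA repair-proficient DT40 cells per well.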

[2] = qHTS assay to identify small molecule antagonists of the androgen receptor (AR) signaling pathway - cell viability counter screen (AID 743033; also: nearly all actives have a fitted effect of over 45% in size; also: potency is read from the fitted curve at half-maximal effect; as to activity change, negative = cytotoxicity: % is scaled to controls: 0 for no effect and ±100 for the full control effect); details: AR-bla HEK293 viability, CellTiter-Glo luminescence, 16 h; activity change, negative = cytotoxicity: at 58.5 µM (top of the series)
[3] = target: Androgen receptor (Homo sapiens) (UniProt P10275); test: qHTS assay to identify small molecule antagonists of the androgen receptor (AR) signaling pathway (AID 743035; active = well fitted inhibition curve with a large enough effect in the signal ratio in the repeat runs, not every such curve was filed as active; inconclusive = weak or mixed curves, or effect the other way; inactive = no such curve, though single readings can be large or run the other way; the % refers to the signal ratio; also: potency is read from the fitted curve at half-maximal effect; as to activity change, negative = inhibition: % is scaled to controls: 0 for no effect and ±100 for the full control effect); details: HEK293 AR-UAS-bla, R1881-stimulated, beta-lactamase FRET, 16 h; activity change, negative = inhibition: at 58.5 µM (top of the series) unless noted
Sequence of UniProt P10275 (P10275 whole entry, looked up): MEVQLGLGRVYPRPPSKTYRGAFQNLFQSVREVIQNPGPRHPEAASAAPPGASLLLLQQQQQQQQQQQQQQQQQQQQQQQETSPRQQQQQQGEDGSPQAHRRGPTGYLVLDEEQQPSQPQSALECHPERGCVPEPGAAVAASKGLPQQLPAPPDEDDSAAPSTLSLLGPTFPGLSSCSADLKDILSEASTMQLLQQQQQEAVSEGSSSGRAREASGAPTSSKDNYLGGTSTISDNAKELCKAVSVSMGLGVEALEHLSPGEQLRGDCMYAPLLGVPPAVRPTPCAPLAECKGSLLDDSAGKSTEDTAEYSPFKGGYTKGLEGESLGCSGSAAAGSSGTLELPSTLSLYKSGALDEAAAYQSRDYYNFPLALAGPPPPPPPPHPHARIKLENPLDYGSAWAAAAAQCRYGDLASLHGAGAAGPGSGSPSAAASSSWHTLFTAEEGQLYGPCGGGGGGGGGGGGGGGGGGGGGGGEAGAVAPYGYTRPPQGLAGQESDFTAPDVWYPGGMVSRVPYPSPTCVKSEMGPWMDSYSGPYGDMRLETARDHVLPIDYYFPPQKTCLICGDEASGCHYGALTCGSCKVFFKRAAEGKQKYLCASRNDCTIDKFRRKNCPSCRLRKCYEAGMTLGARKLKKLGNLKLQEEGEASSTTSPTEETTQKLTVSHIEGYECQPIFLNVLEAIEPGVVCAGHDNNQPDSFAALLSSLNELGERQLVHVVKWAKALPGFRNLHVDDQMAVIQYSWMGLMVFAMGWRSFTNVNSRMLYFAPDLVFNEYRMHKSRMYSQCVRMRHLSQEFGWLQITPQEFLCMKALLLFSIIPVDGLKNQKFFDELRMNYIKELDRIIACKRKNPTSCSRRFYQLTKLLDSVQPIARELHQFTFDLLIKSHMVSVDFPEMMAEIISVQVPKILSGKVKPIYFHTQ
Outline: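 Antagonist mode: AR-bla HEK293 cells co-treated with test compounds and agonist R1881 for 16 h at 37C, 5% CO2. Beta-lactamase activity read as FRET fluorescence after 2 h room-temperature substrate loading.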

[4] = target: Androgen receptor (Homo sapiens) (UniProt P10275); test: qHTS assay to identify small molecule agonists of the androgen receptor (AR) signaling pathway (AID 743036; active = well fitted activation curve with a large enough effect in the signal ratio in the repeat runs, with a control signal flat, not every such curve was filed as active; inconclusive = weak or mixed curves, or effect the other way; inactive = no such curve, though single readings can be large or run the other way; the % refers to the signal ratio; also: % is scaled to controls: 0 for no effect and ±100 for the full control effect); details: HEK293 AR-UAS-bla GripTite, beta-lactamase FRET ratio, 16 h; activation: at 62.4 µM (top of the series) unless noted
Outline: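 In this Tox21 qHTS, 2,000 HEK293 AR-bla cells per well were incubated with compounds for 16 h at 37C and 5% CO2. Fluorescence intensity was recorded 2 h after adding LiveBLAzer B/G FRET substrate at room temperature.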

[5] = qHTS assay to identify small molecule antagonists of the thyroid receptor (TR) signaling pathway - cell viability counter screen (AID 743064); details: GH3.TRE-Luc viability, CellTiter-Fluor, 24 h; activity change, negative = cytotoxic: at 70.3 µM (top of the series) unless noted; also: nearly all actives have a fitted effect of over 50% in size; also: potency is read from the fitted curve at half-maximal effect
Outline: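 Counter screen for cytotoxicity: compound plus T3 (1 nM final) on GH3.TRE-Luc cells, 23.5 h at 37 °C, then fluorescence viability readout with CellTiter-Fluor.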

[6] = target: Estrogen receptor (Homo sapiens) (UniProt P03372); test: qHTS assay to identify small molecule antagonists of the estrogen receptor alpha (ER-alpha) signaling pathway (AID 743069; active = well fitted curve in the direction sought with a large enough effect in the signal ratio in the repeat runs, not every such curve was filed as active; inconclusive = weak or mixed curves, or effect the other way; inactive = no such curve, though single readings can be large or run the other way; the % refers to the signal ratio; also: potency is read from the fitted curve at half-maximal effect); details: HEK293 ER-alpha-UAS-bla, beta-lactamase ratio, antagonist mode; activity, negative = inhibition: at 69.4 µM (top of the series) unless noted
Sequence of UniProt P03372 (P03372 whole entry, looked up): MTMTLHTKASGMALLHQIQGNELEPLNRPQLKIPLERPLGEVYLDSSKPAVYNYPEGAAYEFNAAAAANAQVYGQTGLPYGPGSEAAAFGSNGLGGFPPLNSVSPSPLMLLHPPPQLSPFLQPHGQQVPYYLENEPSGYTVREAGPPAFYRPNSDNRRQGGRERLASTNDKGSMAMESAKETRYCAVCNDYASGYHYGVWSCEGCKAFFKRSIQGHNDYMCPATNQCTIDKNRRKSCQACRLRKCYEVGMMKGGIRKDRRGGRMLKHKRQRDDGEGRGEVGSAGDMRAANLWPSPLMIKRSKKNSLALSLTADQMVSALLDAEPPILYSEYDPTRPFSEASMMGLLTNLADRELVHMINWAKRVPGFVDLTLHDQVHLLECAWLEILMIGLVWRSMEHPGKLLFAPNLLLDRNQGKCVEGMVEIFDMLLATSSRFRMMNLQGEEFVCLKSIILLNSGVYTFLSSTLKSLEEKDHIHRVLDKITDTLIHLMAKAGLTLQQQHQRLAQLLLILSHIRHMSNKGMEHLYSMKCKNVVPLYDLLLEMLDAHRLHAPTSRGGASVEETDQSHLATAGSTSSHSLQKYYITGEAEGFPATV
Outline: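 Fluorescence intensity from a beta-lactamase FRET substrate served as the read-out. Cells: HEK293 with stably integrated ER-alpha-UAS-bla reporter. Agonist 17beta-estradiol was co-added with compounds; incubation 18 hr at 37C, substrate 2 hr at room temperature.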

[7] = qHTS assay to identify small molecule antagonists of the estrogen receptor alpha (ER-alpha) signaling pathway - cell viability counter screen (AID 743074; calls by dose curve; also: nearly all actives have a fitted effect of over 45% in size; also: potency is read from the fitted curve at half-maximal effect)
[8] = qHTS assay to identify small molecule antagonists of the estrogen receptor alpha (ER-alpha) signaling pathway using the BG1 cell line (AID 743080; calls by dose curve;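 also: BG1 cells stimulated with 17beta-estradiol alongside compound; nearly all actives have a fitted effect of over 25% in size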; also: potency is read from the fitted curve at half-maximal effect); details: BG1Luc4E2 ERE-luciferase antagonist mode, luminescence; activity change, negative = inhibition: at 70.3 µM (top of the series) unless noted
Outline: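 BG1-Luc-4E2 cells (endogenous full-length ER-alpha, stable 4×ERE-luciferase) were starved 5 days in phenol-red-free medium with 10% charcoal-stripped FBS, plated 24 h, then given compound plus 17beta-estradiol for 21.5 h at 37 C; ONE-Glo luminescence read after 30 min.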

[9] = qHTS assay for identifying genotoxic compounds that show differential cytotoxicity against isogenic chicken DT40 cell lines with known DNA damage response pathways - Rad54/Ku70 mutant cell line (AID 743015); details: DT40 Rad54/Ku70 mutant viability, CellTiter-Glo, 40 h; activity change, negative = cytotoxicity: at 66.8 µM (top of the series); also: nearly all actives have a fitted effect of over 60% in size; also: potency is read from the fitted curve at half-maximal effect
[10] = tested on: thyroid hormone receptor (rat, GH3 cells); test: qHTS assay to identify small molecule agonists of the thyroid receptor (TR) signaling pathway (AID 743066; calls by dose curve; also: % is scaled to controls: 0 for no effect and ±100 for the full control effect); details: GH3.TRE-Luc cells, TR agonist luciferase, 24 h; activation: at 83.9 µM (top of the series) unless noted
[11] = target: Estrogen receptor (Homo sapiens) (UniProt P03372); test: qHTS assay to identify small molecule agonists of the estrogen receptor alpha (ER-alpha) signaling pathway using the BG1 cell line (AID 743079); details: BG1Luc4E2 cells, ERE-luciferase agonist, 22 h; activation: at 70.3 µM (top of the series) unless noted; also: nearly all actives have a fitted effect of over 20% in size; also: potency is read from the fitted curve at half-maximal effect
[12] = qHTS assay to identify small molecule antagonists of the thyroid receptor (TR) signaling pathway (AID 743065); also: potency is read from the fitted curve at half-maximal effect; nearly all actives have a fitted effect of over 55% in size
Outline: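 Antagonism measured as loss of luciferase signal in GH3 cells stably carrying a TRE-luciferase reporter, co-treated with compound and T3 (1 nM final) for 23.5 h at 37 C. Viability was read in the same well by CellTiter-Fluor.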

[13] = qHTS assay to identify small molecule antagonists of the estrogen receptor alpha (ER-alpha) signaling pathway using the BG1 cell line - cell viability counter screen (AID 743081);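 also: compound given together with 17beta-estradiol as the ER stimulus; nearly all actives have a fitted effect of over 45% in size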; also: potency is read from the fitted curve at half-maximal effect
[14] = qHTS assay to identify aromatase inhibitors - cell viability counter screen (AID 743084); details: MCF-7 aro ERE viability, CellTiter-Fluor, 24 h; activity change, negative = cytotoxicity: at 70.3 µM (top of the series);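 also: cells stimulated with testosterone during compound exposure; potency is read from the fitted curve at half-maximal effect; nearly all actives have a fitted effect of over 55% in size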
[15] = qHTS assay to identify small molecule antagonists of the androgen receptor (AR) signaling pathway using the MDA cell line - cell viability counter screen (AID 743041; also: potency is read from the fitted curve at half-maximal effect; nearly all actives have a fitted effect of over 45% in size); details: MDA-kb2 viability, CellTiter-Fluor, 16 h, cells co-treated with R1881 androgen agonist; viability change, negative = cytotoxic: at 70.3 µM (top of the series) unless noted
Outline: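 Using the breast carcinoma line MDA-kb2 AR-luc, test chemicals were co-incubated with R1881 for 16 h; CellTiter-Fluor reagent, added at 15.5 h, provided a fluorescence measure of live cells.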

[16] = target: Androgen receptor (Homo sapiens) (UniProt P10275); test: qHTS assay to identify small molecule antagonists of the androgen receptor (AR) signaling pathway using the MDA cell line (AID 743042; also: potency is read from the fitted curve at half-maximal effect; nearly all actives have a fitted effect of over 55% in size)
Outline: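 Antagonist mode: compounds plus R1881 agonist added to MDA-kb2 AR-luc cells, incubated 16 h at 37C. Luciferase reporter luminescence quantified, with multiplexed CellTiter-Fluor readout for cell viability.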

Aromatase (Homo sapiens) = Aromatase (Homo sapiens) (UniProt P11511); test: qHTS assay to identify aromatase inhibitors (AID 743083); also: nearly all actives have a fitted effect of over 55% in size; also: potency is read from the fitted curve at half-maximal effect
Sequence of UniProt P11511 (P11511 whole entry, looked up): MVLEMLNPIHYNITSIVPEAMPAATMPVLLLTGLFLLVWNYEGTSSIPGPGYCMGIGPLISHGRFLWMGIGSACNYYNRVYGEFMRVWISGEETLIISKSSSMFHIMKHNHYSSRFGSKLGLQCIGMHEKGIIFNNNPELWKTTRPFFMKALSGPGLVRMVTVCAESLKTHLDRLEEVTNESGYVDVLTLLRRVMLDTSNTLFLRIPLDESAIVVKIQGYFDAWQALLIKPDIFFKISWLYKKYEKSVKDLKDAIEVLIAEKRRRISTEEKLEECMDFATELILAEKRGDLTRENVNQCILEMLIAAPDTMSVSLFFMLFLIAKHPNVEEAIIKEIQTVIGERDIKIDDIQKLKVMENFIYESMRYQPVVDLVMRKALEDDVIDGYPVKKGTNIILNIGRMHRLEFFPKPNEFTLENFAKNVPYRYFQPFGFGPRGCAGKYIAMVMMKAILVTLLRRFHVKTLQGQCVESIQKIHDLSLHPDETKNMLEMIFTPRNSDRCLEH

[17] = target: Estrogen receptor (Homo sapiens) (UniProt P03372); test: qHTS assay to identify small molecule agonists of the estrogen receptor alpha (ER-alpha) signaling pathway (AID 743075; calls by dose curve; also: potency is read from the fitted curve at half-maximal effect)
Tags tell the direction and shape of the fitted curve or compound fluorescence and quenching.

Which Potency [1] does the source give for `O=C(OCC(O)CO)c1ccccc1Nc1ccnc2cc(Cl)ccc12` (stereo not given) here?
The Potency was inconclusive: 14.3 µM [cytotoxic].

What about the Potency [2] of the same compound?
Its Potency is “inactive”.

What about the activity change, negative = inhibition [3] of the same compound?
The activity change, negative = inhibition was inconclusive: -24.5% [at 27 µM].

What about the Potency [4] of the same compound?
The Potency was “inactive”.

And the Potency [5]?
Its Potency is “inactive”.

And the activity, negative = inhibition [6]?
The activity, negative = inhibition was inconclusive: 26.5% [at 32.6 µM].

What about the Potency [7] of the same compound?
Its Potency is “inactive”.

And the Potency [8]?
The Potency was “inactive”.

What does the source list for `NC(=O)N(O)[C@@H]1COc2cc(OCc3ccccc3)ccc21`?
Potency [1]: inconclusive: 68.6 µM [cytotoxic, single point]; Potency [9]: active: 61.1 µM; activation [10]: inconclusive: -7.18% [phenotype inactive]; activation [11]: inconclusive: -16.6% [phenotype inactive]; Potency [8]: inconclusive: 0.77 µM [rising, full curve]

For `O=C(N[C@@H](c1ccccc1)[C@@H]1CCCCN1)c1cccc(C(F)(F)F)c1Cl`, which Potency [1] is on record?
Its Potency is active: 12.2 µM.

What about the Potency [2] of the same compound?
The Potency was inconclusive: 34.7 µM [cytotoxic, partial curve].

What about the Potency [12] of the same compound?
The Potency was active: 27.3 µM.

What about the activation [10] of the same compound?
The activation was inconclusive: -8.63% [phenotype inactive].

And the activity, negative = inhibition [6]?
The activity, negative = inhibition was inconclusive: -29%.

What about the Potency [11] of the same compound?
Its Potency is inconclusive: 77 µM [inhibitor, single point].

What about the Potency [8] of the same compound?
Its Potency is inconclusive: 77 µM [falling, single point].

What about the Potency [13] of the same compound?
The Potency was inconclusive: 0.243 µM [rising, single point].

What about the Potency [14] of the same compound?
The Potency was inconclusive: 68.6 µM [cytotoxic, single point].

For `CCC(=O)c1ccc2c(c1)N(CCCN(C)C)c1ccccc1S2`, which Potency [1] is on record?
Its Potency is active: 4.73 µM.

And the Potency [2]?
Its Potency is inconclusive: 10.7 µM [rising, single point].

What about the Potency [3] of the same compound?
Its Potency is inconclusive: 9.52 µM [rising, partial curve, poor fit].

What about the Potency [15] of the same compound?
The Potency was inconclusive: 33.5 µM [cytotoxic, single point].

And the Potency [16]?
The Potency was inconclusive: 33.5 µM [inhibitor, single point].

And the activation [10]?
Its activation is inconclusive: -8.6% [phenotype inactive].

And the Potency [13]?
The Potency was inconclusive: 7.5 µM [cytotoxic, partial curve, poor fit].

What about the Potency (Aromatase (Homo sapiens)) of the same compound?
The Potency was inconclusive: 29.8 µM [inhibitor, partial curve, poor fit].

And the Potency [14]?
Its Potency is inconclusive: 33.5 µM [cytotoxic, partial curve, poor fit].

What does the source list for `O=C(Nc1ccccc1)Nc1ccccc1`?
Potency [1]: inconclusive: 68.9 µM [cytotoxic, single point]; Potency [2]: inconclusive: 43.8 µM [cytotoxic, partial curve, poor fit]; Potency [12]: inconclusive: 21.8 µM [inhibitor, partial curve, poor fit]; Potency [11]: active: 19.4 µM; Potency [8]: inconclusive: 3.45 µM [rising, full curve]

Which Potency [1] does the source give for `CCOc1ccc2nc3cc(N)ccc3c(N)c2c1` here?
Its Potency is inconclusive: 29.8 µM [cytotoxic, single point].

And the Potency [2]?
The Potency was “inactive”.

What about the Potency [5] of the same compound?
The Potency was inconclusive: 29.8 µM [rising, partial curve].

What about the Potency [17] of the same compound?
Its Potency is inconclusive: 23.9 µM [fluorescent].

And the activity change, negative = inhibition [8]?
The activity change, negative = inhibition was inconclusive: -3.56%.

What about the Potency [13] of the same compound?
The Potency was inconclusive: 26.6 µM [rising, partial curve].

What about the Potency (Aromatase (Homo sapiens)) of the same compound?
The Potency was inconclusive: 33.5 µM [inhibitor, single point].

And the Potency [14]?
Its Potency is inconclusive: 13.3 µM [rising, partial curve].

Which results are given for `COc1ccc(N)c([N+](=O)[O-])c1`?
Potency [1]: inactive; Potency [2]: inactive

Which Potency [1] does the source give for `CC(=O)c1ccc2c(c1)[C@H](NC(=O)c1ccc(F)cc1)[C@@H](O)C(C)(C)O2` here?
The Potency was “inactive”.

What about the Potency [9] of the same compound?
Its Potency is “inactive”.

What about the Potency [5] of the same compound?
Its Potency is inconclusive: 28.8 µM [cytotoxic, partial curve, poor fit].

What about the Potency [7] of the same compound?
Its Potency is “inactive”.

What about the Potency [14] of the same compound?
The Potency was inconclusive: 45.7 µM [cytotoxic, single point].

Which Potency [1] does the source give for `CC(C)(C)OC(=O)N1C[C@@H](F)C[C@H]1C(=O)O` here?
The Potency was “inactive”.

What about the Potency [9] of the same compound?
Its Potency is inconclusive: 70.8 µM [cytotoxic, single point].

And the Potency [17]?
The Potency was “inactive”.

Which Potency [1] does the source give for `O=C(O)CC(C(=O)O)S(=O)(=O)O` (stereo not given) here?
Its Potency is active: 68.6 µM.

And the Potency [9]?
Its Potency is inconclusive: 68.6 µM [cytotoxic, single point].

And the Potency (Aromatase (Homo sapiens))?
The Potency was “inactive”.

What does the source list for `O=C(O)c1cccc(C[C@@H]2COc3ccc(OCc4nc5cc(F)ccc5s4)cc3[C@@H]2O)c1`?
Potency [1]: inconclusive: 68.7 µM [cytotoxic, single point]; Potency [9]: inconclusive: 68.7 µM [cytotoxic, single point]; Potency [13]: inactive

Which results are given for `C=COCC1CCC(CO)CC1` (stereo not given)?
Potency [1]: inactive; Potency [2]: inactive; Potency [5]: inconclusive: 27.3 µM [rising, single point]; Potency [6]: inconclusive: 54.9 µM [rising, single point]; Potency [7]: inconclusive: 5.49 µM [rising, full curve]
